In the RNAGym collection of RNA variant scans (doi:10.1093/nar/gkz1192) one finds self-cleavage data, which are given here for 84 variants.

The source gives no read counts; variants with many changes may rest on few reads.

B1: CPEB3 Ribozyme (parent)
chain: UAACAGGGGGCCACAGCAGAAGCGUUCACGUCGCAGCCCCUGUCAGAUUCUGGUGAAUCUGCGAAUUCUGCUGUAUAUCUC

Variants of B1 are the subject of this data set. Kind of data set: self-cleavage, relative activity (ratio to wild type); higher = more cleavage; in vitro, sequencing. A digest of the protocol: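 Libraries of CPEB3 self-cleaving ribozyme mutants came from rounds of error-prone PCR and carried barcodes, which DNA sequencing matched to variants. In vitro transcription used T7 RNA polymerase at 37°C for 5 hours, with a further 15 min in DNase I before EDTA stopped the reaction; the ribozymes cleaved during both steps. The RNA was reverse transcribed with template switching and sequenced on Illumina. Relative activity is the cleaved/total read fraction of a variant divided by that of the unmutated ribozyme, averaged over three batches with at least 5 reads.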
For C14A U51G G61A, the self-cleavage worked out at 0.32. Next, C14A A21U A35G C44G: 0.41; C14U A20G A21G U25A G46U A56U U67C: 0.06; C14G C23U U69A A77G: 0.04.

As to C14U A20G U26A U54A, the self-cleavage came out at 0.54.

With C14A A21G U72C, the self-cleavage worked out at 1.02. To C14G A20G A45G belongs 0.32; to C14G A20G A45U, 0.35. For the variant C14U A15C U72A, the self-cleavage was found to be 0.91.

As for C14A U51A U72C U78A, the self-cleavage was 1.31. Regarding C14U U25C U41A U60C, the self-cleavage amounted to 0.13. To C14U C39A U54C U60G U80C belongs 0.11. Consider C14U U31C A65G, for which the self-cleavage was 0.31. For the variant C14U U25C C44U G73C, the self-cleavage is 0.02. To C14U A18U U49A belongs 0.32; to C14A A15G U25C U74C U80A, 0.28.

C14U A45U U66A: the self-cleavage stood at 0.18. As to C14A U41A U43C, the self-cleavage worked out at 0.53. Next, C14U A20G U25C A56U: 0.07; C14U U26A U31C: 0.67. As for C14A C23A U48C, the self-cleavage was 0.17.

With C14G U31A U60C A65G, the self-cleavage stood at 0.13. In the case of A13U U69C G73A, the self-cleavage came out at 1.05.

Turning to A13U U58C U69C, the self-cleavage amounted to 0.19.

Regarding C14A A20G C27A C38U U43A, the self-cleavage stood at 0.05. C14U A21G A77G: the self-cleavage worked out at 0.97. Next, C14A A15G U51A: 1.21; A13U U58C U60A: 0.27. Next, C14G U31A C38U A75U A77U: 0.28. To C14G A21G G42U U51C U60A belongs 0.14. On to C14G G42U U72C, for which the self-cleavage amounted to 0.35. Take C14U A28G A64G: the self-cleavage was 0.57. C14U C23U G46U U48C U60C U67A A75G: the self-cleavage came out at 0.05.

Take C14U A15G A20C C23A U54G U58C: the self-cleavage turned out to be 0.04. To C14A A20U U25C G33A U41A belongs 0.17.

In the case of C14U A21G U41A U60A, the self-cleavage came out at 0.09. To C14U A35G U43C C62A C79A belongs 0.72; to C14U G19A U41C, 0.2. With C14U C38G C40A G42A G53A A57G U58C, the self-cleavage was found to be 0.11. C14A U31C G63A U72C: the self-cleavage came out at 0.62. Next, C14A C17G G70A: 0.74. To C14A A18U A21G A77G belongs 0.22; to C14A U31C A57G, 0.61; to C14U G16C A56G U72C U78C, 0.29.

Turning to C14U C34A C50U, the self-cleavage was 0.29. On to C14G U49C A65C, for which the self-cleavage amounted to 0.07. Consider C14U U25C U26C U60A, for which the self-cleavage was found to be 0.26. In the case of C14A C29G U41C A57G, the self-cleavage was determined as 0.15. Take C14U C44U A57G: the self-cleavage is 0.18. As to C14U G42U A57G, the self-cleavage is 0.21. As to C14U C34U A56G G73A A75U, the self-cleavage stood at 0.61.

On to C14A U54C U76C, for which the self-cleavage stood at 1.08.

In the case of C14G G16U A64G U67C, the self-cleavage worked out at 0.04. As to C14U A18G A21G U31C U43C, the self-cleavage came out at 0.04. Turning to C14U A21G A47U, the self-cleavage turned out to be 0.62. In the case of C14U U25A U74G C81U, the self-cleavage is 0.04.

For C14U A21G G24A C50A U54A U58C A64C, the self-cleavage turned out to be 0.05.

As for C14U G19C U78A, the self-cleavage worked out at 0.37. Next, C14U A18C A35G: 0.74. For C14U A56U U60A U74C, the self-cleavage came out at 0.24.

C14U C32U U43C: the self-cleavage worked out at 0.15. C14U A28G A57G U66C: the self-cleavage is 0.13.

In the case of C14A U54C A65G, the self-cleavage was 0.36.

As for C14U G16U G36C U43G U51C U60C, the self-cleavage was 0.13. Next, C14U A15U A35G G46U A77C: 0.42; C14G A28U U31C A65U U69C: 0.05; A13U U67A U72C: 0.53.

With A13U U72C U80A, the self-cleavage turned out to be 1.01.

As to C14A U60C U69A, the self-cleavage turned out to be 0.23. With C14A U26A U51C U66C, the self-cleavage came out at 0.44. Next, C14U A21U G33U U69C A75G: 0.04; C14A A18G A35G A45G G63C U69C: 1.21; C14U A20U C38G C40A A57G U58C: 0.04. With A13U U76A A77G, the self-cleavage was 1.16. C14U C23A A45U A56G: the self-cleavage was 0.08. For C14A U26C U67C U78C, the self-cleavage was 0.09. With C14U A47G U49A A65G, the self-cleavage worked out at 0.13. Consider C14U A18G A28G U69C U80C, for which the self-cleavage worked out at 0.82. With C14A U25C C29U U41C U48C A56U U67A, the self-cleavage worked out at 0.03. C14A A18U U48C: the self-cleavage was 0.23.

On to C14U A18G G24A U26C G33A U51C C79A, for which the self-cleavage came to 0.05. To C14U A20G U67C belongs 1.09; to C14A C23U A64U, 0.14.

C14U G24A C38U U41C U60C: the self-cleavage was determined as 0.14.
